In the supplement of paper PMC3334620:
Whole data set: some 33,000 sequences, median “E-score (-0.5 to 0.5)” near -0.036, cut for the highest 2% near 0.37. The list shows a part of the results.

target: T1, Yer064c (UniProt P40041); test: PBM E-score (8-mer binding enrichment) (E-score (-0.5 to 0.5)); higher = stronger / more preferred TF binding; most listed sequences are background and not binding sites; conditions: protein concentration: 200 nM; construct: GST-full length
T1 sequence: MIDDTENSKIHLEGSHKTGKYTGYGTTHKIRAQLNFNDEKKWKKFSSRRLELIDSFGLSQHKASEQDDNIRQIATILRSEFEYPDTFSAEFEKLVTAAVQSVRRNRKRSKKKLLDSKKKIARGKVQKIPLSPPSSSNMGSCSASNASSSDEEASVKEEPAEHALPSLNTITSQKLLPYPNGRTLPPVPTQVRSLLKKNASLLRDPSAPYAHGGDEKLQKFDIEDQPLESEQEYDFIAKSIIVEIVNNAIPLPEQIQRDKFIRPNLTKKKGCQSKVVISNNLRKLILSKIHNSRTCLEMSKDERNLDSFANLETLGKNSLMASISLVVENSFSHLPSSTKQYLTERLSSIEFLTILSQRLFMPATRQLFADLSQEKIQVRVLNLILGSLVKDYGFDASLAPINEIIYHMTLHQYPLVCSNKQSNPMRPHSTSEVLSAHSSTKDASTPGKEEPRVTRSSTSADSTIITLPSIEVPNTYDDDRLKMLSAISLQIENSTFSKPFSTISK
Procedure, shortened: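 Bound GST-tagged yeast transcription factors, applied at about 100-200 nM to double-stranded universal all-10-mer Agilent arrays, were detected with fluorescent anti-GST. Scans were normalised with masliner. A modified Wilcoxon-Mann-Whitney statistic, the E-score, was assigned to each ungapped eight-base word pooled with its reverse complement by the Universal PBM Analysis Suite.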

Sequence	PBM E-score
ACCTACAG	-0.0134
CTCCGTGA	0.136
CATCAAGG	-0.0212
GTACTAAC	0.128
AATGGTAG	-0.0105
GTCGCTGA	0.166
GACCACAA	-0.0302
CCAATTAC	-0.0578
ACATACAG	-0.105
GAGACTAC	0.36
CCGAAAAC	-0.0537
AAGACTGA	0.347
GAACCCGA	-0.044
CAGAACGC	-0.146
GCACTACC	0.0252
AAAAGAAA	0.0748
AAGCAGCG	-0.0466
ACAGTCGA	0.0356
AGGTAACA	0.0227
GAATGAAC	0.052
GCAATCCC	-0.118
CGCGAACC	-0.176
AAGTTTTC	-0.186
CGACAAAG	-0.0777
ATTCCTGC	-0.0134

Sequence	PBM E-score
CTGTTCTC	-0.075
CAAATCTA	0.0314
CCCTCGGC	-0.294
GAGTCTCC	0.419
GCAAACAC	-0.16
AAAGTCCT	0.0605
ACGCAAAG	-0.1
ACGACTTG	0.17
GTGTCTAA	0.189
GTCCTATA	-0.0544
AAGGGAGT	0.139
CATGAAGA	0.136
AAATGCAA	0.0368
CGACGATA	-0.0558
AACGTGGA	-0.148
AGACGAAG	0.0921
CGCGTATC	-0.177
ATTCCGGG	-0.0471
AGGTAATC	0.25
AGTTCTGA	0.131
CAACTTCA	-0.00156
TGGGAACA	-0.196
ATAAGACA	-0.0428
AAAGGGCA	-0.0738
CTGCTTAC	-0.105

Sequence	PBM E-score
AGCCCACG	-0.024
ACAACAGC	-0.0722
ATCAATCC	-0.0246
CCGTCGAA	-0.104
AAATATTA	0.0244
ACGAGGTA	-0.0549
GTGGACAC	-0.203
CCCCATAG	-0.199
CGTTCCCA	-0.185
CAACAATG	-0.0783
CATATTTC	-0.0612
CCGATTGC	-0.0943
AGCATCAG	-0.067
ATAGTCCA	0.213
CTTGAAAG	0.0114
CTATAGGC	-0.137
GCGCGAGC	-0.143
CCACCGAG	-0.0439
GGGCAACC	-0.122
ACTTGTAT	0.11
ACACTATG	0.133
AGCTCAAG	0.00652
CCGCAAAC	-0.036
TACCCAAA	0.041
CTCACTCC	0.0635

Sequence	PBM E-score
GGGGTGAC	0.171
CTGAGTTC	0.104
GCACGCGA	-0.0742
CTAAGTCC	0.148
AGCACGGA	-0.164
CCCTGGAA	-0.187
CGTTGTCC	0.00374
TGGATAAA	0.0283
ACGTATCC	-0.214
ACACACCC	0.111
CCCGGGAC	-0.261
TCACAAAA	0.22
CTTGTGTC	-0.00569
GTACACTA	-0.00017
TCCATAGA	0.0191
CCTGCCGA	-0.0807
CTATGGCC	-0.196
CCCGAGGC	-0.0736
CCAACTCG	0.0497
ACGGGTTA	-0.378
ATGCCAAG	-0.0388
TAGTGTGA	0.231
AGTCGCGA	0.34
AGCTATCC	-0.396
CTACACGC	-0.0972

Sequence	PBM E-score
ACAAATGG	0.1
CTGTACTA	0.159
AAGTTACA	0.047
CACATGGC	0.152
GATTAAAA	0.343
AGAAGACC	-0.209
CGTAACTC	0.0393
AGGTTCAT	-0.118
CCGCGTGC	-0.134
CATACCAC	-0.142
CGAACGAG	0.00961
GGCGGCCC	-0.0657
AACATTCA	-0.104
GTCGTTGA	0.187
CCATTAGG	-0.193
CGAGAGAG	-0.0959
AATACGAC	0.117
AGCGGCTC	-0.184
AATCTGGA	-0.143
AATACATC	-0.164
CCGGATAC	-0.0856
GGCCATAA	-0.148
ACTTACTA	0.143
ATACCCCA	-0.102
CTTTCTAA	0.115

Sequence	PBM E-score
ACCCCACC	-0.0237
CAAGATCA	0.088
AAATCCCT	-0.199
ATAATCTG	0.0759
AGGATCAA	0.19
CGACTCAG	0.45
GCAAGGTA	-0.242
CCTATGAA	-0.15
GGATACAA	0.0348
CAGCCCCA	-0.187
GAGTCTCA	0.411
AGACATTA	0.196
TGGGGACA	-0.041
ATTGTGAA	0.103
CAAAGGCG	-0.0844
CGGACCGA	-0.0816
CCTTAAAC	0.00355
ACCTCACA	-0.118
CACCGCGG	-0.0147
ACCTCGAG	-0.135
CATTATTA	0.0916
CAACCGCC	-0.179
TAGGTTAA	0.0927
CGGTTCCC	-0.299
GGGACAAA	-0.134

Sequence	PBM E-score
CTCCAGAC	0.115
CTTATGTC	-0.107
TCCGTTAA	0.105
AAGCGCTT	0.034
ATCCGGTG	0.0615
CATGGCCC	-0.174
CCGTATAC	-0.185
CCGAGACA	0.00538
ACTATTCA	0.106
CTATAGCC	-0.0342
CGGTGCAC	-0.278
CCGAAGGA	0.0542
AGAGCTAC	-0.272
ATTCAGAA	0.139
CGGCACTC	-0.228
CACGATCC	0.138
GCACAAGC	-0.0968
AGGGGCCC	-0.315
CTAATTAG	0.175
CTGTCCGC	-0.0966
TGATAGCA	0.0998
AAATGATA	0.104
ATGTAAAT	0.0103
GACAACCC	-0.174
GACTTTCA	0.209

Sequence	PBM E-score
ATACACGG	-0.129
AGCGGATG	-0.0548
GGGTTGAA	-0.0719
ATCAGTCC	0.0464
CGCATACG	-0.206
CCTTAAGG	0.107
ACCTGCGT	-0.162
CGCTAGGA	0.177
GATGGGGA	-0.0916
AACCACAT	0.164
GAAGTAGC	-0.168
GGCCTTTA	-0.32
GTGGCCAA	-0.219
CAAAGCCG	-0.176
GGGAATCA	0.418
ACAAAAGT	0.131
TAAAGGCA	-0.11
AAGGGACG	-0.332
CGAGTAGA	0.0255
ACTTGATG	0.0408
ACAAAATC	0.044
GCACATAA	-0.0575
CAGCGCCG	-0.0963
CCCCTTCG	-0.214
CGGAGAAA	-0.0432

Sequence	PBM E-score
CAGCAGAC	-0.0101
CCAGGTAC	-0.061
AACCTGCC	-0.127
ACGTATCA	-0.0547
CCGTGTCC	-0.159
AACTAATA	0.176
CCAGGTAA	-0.119
TAGAGTAA	0.0416
GTTGGCAA	-0.14
AGATCAAG	0.158
AAGGTTCG	-0.237
GCCTAACC	-0.0204
TATGTGAA	-0.00112
CAAAGTCC	-0.222
ACAAGTAT	-0.0156
AAGAGTGC	-0.146
TCAAGGAA	0.129
TCCCGAAA	-0.119
AATCGCCA	0.0233
AGTGGTAT	-0.0965
ATGCTCCG	-0.333
ACCACCCA	-0.141
AGACTTAC	0.181
AATTTGGT	-0.0209
ACAGGTAA	0.00368

Sequence	PBM E-score
AATGGATG	-0.123
AATGTTTC	-0.129
ACACAACA	-0.0117
GTTCTGGA	-0.0692
GTGGGGGA	-0.216
GATATAAC	-0.0513
CTTCCCAA	-0.0465
ATCACCCG	0.158
CGATTGGC	-0.078
CTCCAGCC	-0.294
CTCGTCCC	-0.159
ACCTTTCG	-0.196
ATTATTTG	0.143
GGCGAGTA	0.133
GAGGCTGA	0.106
ATATCTCA	0.0798
ACCCACGA	0.116
GAGTCCGA	0.359
GCCTAAGA	-0.158
GTGACTAA	0.488
TACGAGTA	0.212
TCTCCTCA	0.0382
CCGAGGTC	-0.0793
AAGTAAGC	-0.0828
ATCCTTAA	0.0511

Sequence	PBM E-score
GGAGTCTA	0.172
TTGACCAA	0.0296
ACAACCTA	-0.0701
ACATGGCC	-0.199
ATAAACTA	0.0484
CGAAGGAG	-0.0979
ACGAGTCG	0.383
CGTAACAA	-0.171
TACATCTA	-0.123
ACGTCCGC	-0.236
ACTCGAAA	0.113
GAGAGACC	-0.193
ACAACCGT	-0.181
GTCTCTGA	0.154
AATGTCAC	-0.0216
CGCTTTAA	-0.137
ATTCTGTC	-0.0466
ACATAGCT	-0.134
GTTGTCAA	-0.103
CCCGGTCA	-0.0403
GCACATGA	0.14
GCTATTAA	0.0172
GGAATACC	-0.355
AGAAAACC	-0.111
TCACTTAA	0.218

Sequence	PBM E-score
ATATTGAC	0.219
AAGCCCCT	-0.335
ACCATTAG	0.0275
GTAATACA	0.0916
CGACGTTA	0.0817
ACTACGGC	-0.00844
GACGCGGC	-0.176
CAAGCGGC	-0.14
CTCTTTAC	0.034
ACTTGACA	0.0454
ATTGACCC	0.00864
ACTCAACG	0.288
ATAGGTGG	-0.087
ACTTAAGG	0.228
ACGGCGCT	-0.0852
TACGACGA	0.071
CAAATCAG	0.208
GGGGCCCA	-0.291
CATTCCGA	-0.0329
CTGATAGC	-0.0361
GGCTCATA	0.217
CCTAAATA	-0.0432
AGCACCTC	-0.262
ACCCCAAA	-0.029
ATATTTCA	0.109

Sequence	PBM E-score
AACAAGGG	-0.0996
AAACAAAC	0.0763
CGCATCAA	-0.00581
AAAATGGT	0.00681
CTCCCAAA	0.141
AAGATCTG	0.00725
ACATCCCT	-0.0971
ATGTCCTA	-0.238
TGTAGGAA	-0.159
AAGAGCTG	-0.0948
CACGTCCC	-0.187
AGGTTGAA	0.0183
AAATACCG	-0.0967
AGGCCCAA	-0.247
CGCCACAG	-0.142
TTATAGAA	0.0296
AGCAGTCA	0.412
CCGAAATA	0.0359
CCTGTTTC	-0.011
ATTGAAAG	0.127
ACTTTTGG	0.101
AAACCGTG	-0.0801
GCCGCATA	-0.114
CCTGCAGC	-0.154
CCGTTACA	0.0357

Sequence	PBM E-score
TATCCATA	0.11
TGCCAACA	-0.152
TATCGGGA	-0.096
AGTTAGTG	0.0232
AAATAGAT	-0.0973
ACCGGCGA	-0.129
ACTGTGAT	0.165
ATAAGCAC	-0.17
CATATAGG	-0.0672
TACTGACA	-0.0596
CTCTATAA	0.0662
AAACTATC	-0.068
GGCCAATA	-0.279
ACATCATC	0.212
CTGGGTGC	-0.149
CGATTCCG	0.128
AGCTTACA	0.082
CTCGTAGA	0.0746
GGGAGGAA	-0.181
